According to PubChem BioAssay AID485364 (National Center for Advancing Translational Sciences (NCATS), 2010):
In all, about 360,000 compounds went through this assay and about 11,000 (3.1%) were called active. Inconclusive results, whose numbers are uncertain, are shown with a selection of clear calls. Calls come from the whole dose curve; as a rule, active = well fitted inhibition curve with a large enough effect; inconclusive = small, poorly fitted or top-dose-only effect; inactive = no such curve, though single readings can be large or run the other way. Potencies of inconclusive entries are left out as doubtful fits.

Molecular target: Schistosoma mansoni thioredoxin glutathione reductase (TGR) (UniProt Q962Y6)
Test: qHTS Assay for the Inhibitors of Schistosoma Mansoni Peroxiredoxins; note: nearly all actives have a fitted effect of over 60% in size
Conditions: purified TGR, DTNB reduction, TNB absorbance 405 nm; series mostly up to 114 µM
Procedure, shortened: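 First, TGR (20 nM dispensed) and NADPH were mixed with compound. Second, a 15 min room-temperature incubation followed. Third, further NADPH and then DTNB were added to start the reaction. Finally, TNB absorbance was monitored kinetically.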
Potency is the fitted concentration of half-maximal effect; tags give direction and shape of the fitted curve.

| SMILES | Potency |
| --- | --- |
| CC(=O)c1cccc(NC(=O)c2ccc(N(Cc3ccccc3)S(C)(=O)=O)cc2)c1 | inactive |
| COc1cccc(/C=C/c2nc(S(=O)(=O)c3ccccc3)c(N(C)C)o2)c1 | inconclusive [inhibitor, partial curve] |
| COc1cccc(NC(=O)CCc2c(C)nc3ncnn3c2C)c1 | inactive |
| Cc1ccccc1NC(=O)CCN1C(=O)c2ccccc2Sc2ncccc21 | inactive |
| N#CCSCC(=O)Nc1ccc(F)cc1 | inactive |
| COCCNc1oc(/C=C/c2ccc(F)cc2)nc1S(=O)(=O)c1ccccc1 | active: 31.6 µM |
| Cc1cc(CNC(=O)CC2C(=O)NCCN2CC(c2ccccc2)c2ccccc2)on1 (centres undefined) | inconclusive [inhibitor, partial curve] |
| CC12COC3(C(=O)Nc4cccnc4)CC1CCC32C (centres undefined) | inconclusive [inhibitor, partial curve, poor fit] |
| Nc1nc(CCl)nc(Nc2ccc3ccccc3c2)n1 | active: 15.8 µM |
| Cc1ccc([N+](=O)[O-])cc1NC1OC(CO)C(O)C1O (centres undefined) | inconclusive [inhibitor, partial curve] |
| COC(=O)C1(Cc2cc(-c3ccc([N+](=O)[O-])cc3)no2)CCN(C(=O)OC(C)(C)C)CC1 | active: 20 µM |
| Cc1ccc(S(=O)(=O)CCC(=O)OCc2ccc(S(=O)(=O)C(C)C)cc2)cc1 | inconclusive [inhibitor, partial curve] |
| O=C(Nc1ccc(Sc2ccc(Br)cc2)cc1)c1ccco1 | inactive |
| COc1ccc(C2C=C(c3ccc(Br)s3)Nc3ncnn32)cc1OC (centres undefined) | active: 50.1 µM |
| COC(=O)c1sc(-c2ccc(C(C)(C)C)cc2)cc1NC(=O)c1ccccc1C(=O)O | inactive |
| CC(C)CC(NS(=O)(=O)c1ccc2[nH]c(=O)c(=O)[nH]c2c1)C(=O)O (centres undefined) | inconclusive [inhibitor, full curve] |
| Cc1cccc(NC(=O)c2cc3c(s2)-c2c(C)cccc2OC3)n1 | inactive |
| CNc1sc(C(=O)c2ccccc2F)c(N)c1-c1nc2ccccc2s1 | active: 25.1 µM |
| CCc1cccc(CC)c1NC(=O)c1ccccc1CCc1ccccc1 | inactive |
| COc1ccc(/C(O)=C2/C(=O)C(=O)N(CCN3CCOCC3)C2c2cccnc2)cc1OC (centres undefined) | inconclusive [inhibitor, partial curve, poor fit] |
| Cc1ccccc1NC(=O)NC(C)(C)CC(C)(C)C | inactive |
| CC1=CC(c2ccc(Cl)cc2)n2nc(NC(=O)CCC(=O)O)nc2N1 (centres undefined) | active: 10 µM |
| O=C1OC(/C(=C\Nc2ccccc2)[N+](=O)[O-])c2ccccc21 (centres undefined) | inconclusive [inhibitor, full curve] |
| O=C(O)CCC1=C2c3ccccc3CCN2C(=O)CC1 | inconclusive [inhibitor, partial curve] |
| Cc1cc(C)cc(C(=O)n2nc(C)c(S(=O)(=O)N3CCOCC3)c2C)c1 | inconclusive [inhibitor, partial curve] |

| SMILES | Potency |
| --- | --- |
| Oc1ccc(Br)cc1/C=N/n1c(C2CCCCC2)n[nH]c1=S | inactive |
| O=C(N/N=C/c1cc([N+](=O)[O-])c(N2CCOCC2)cc1N1CCOCC1)c1cccnc1 | inactive |
| COCCN1Cc2cc3cc(C)ccc3nc2SC1=Nc1cccc(OC)c1 | inconclusive [inhibitor, partial curve] |
| O=C(Nc1nc2c(Br)cccc2s1)C1CC1 | inactive |
| O=C(Nc1ccc(N2CCOCC2)cc1)c1ccc2nc(-c3ccco3)c(-c3ccco3)nc2c1 | inconclusive [inhibitor, partial curve, poor fit] |
| O=C(CN(C(=O)CCC(=O)Nc1nccs1)c1ccc(F)cc1)NCC1CCCO1 (centres undefined) | inconclusive [inhibitor, full curve, poor fit] |
| Cc1ccc(-c2nc(CS(=O)CC(=O)NC3CCCC3)c(C)o2)cc1 (centres undefined) | active: 22.4 µM |
| Cc1ccc(/C=C2/SC(=O)NC2=S)o1 | inconclusive [inhibitor, partial curve, poor fit] |
| C=CCn1c(SCC(=O)c2ccc(NS(=O)(=O)c3ccccc3)cc2)nnc1-c1cccs1 | inconclusive [inhibitor, full curve, poor fit] |
| CCCC(=O)OCC(=O)Nc1ccc2[nH]c(=O)[nH]c2c1 | inconclusive [inhibitor, full curve, poor fit] |
| CSc1nc(Cl)c(Cc2ccc(OCC(C)C)cc2)c(N2CCOCC2)n1 | inactive |
| CCCCCCCOC(=O)C[N+](C)(C)CCOC1CC2CCC1(C)C2(C)C (centres undefined) | inactive |
| Cc1ccc(-n2nnnc2SCC(=O)c2ccc3c(c2)NC(=O)CO3)c(C)c1 | inconclusive [inhibitor, single point] |
| CCN1CCN(C(=O)C2COc3ccccc3O2)CC1 (centres undefined) | active: 22.4 µM |
| COc1ccc2c(c1)c(C(=O)CN1CCOCC1)c(C)n2C | inconclusive [inhibitor, single point] |
| CN(C)/N=C/c1ccc(Sc2ccc([N+](=O)[O-])cc2[N+](=O)[O-])o1 | active: 28.2 µM |
| C=CCc1cccc(/C=N/c2ncccc2O)c1O | active: 28.2 µM |
| COc1ccccc1N1CCN(C(c2cc3ccc(C)cc3[nH]c2=O)c2nnnn2C2CCCC2)CC1 (centres undefined) | inconclusive [inhibitor, full curve] |
| CCN(CC)c1ccc(NC(=O)c2cc(CN3CCCC3)on2)c(C)c1 | inactive |
| CCOC(=O)CSC1=NC(=O)/C(=C\c2ccc(OC(C)=O)cc2)S1 | active: 8.91 µM |
| O=C1NCCN(Cc2cccc(Oc3ccccc3)c2)C1CC(=O)N1CCCCC1 (centres undefined) | inconclusive [inhibitor, partial curve] |
| CSc1nc2oc3c(c2c2nncn12)CC(C)(C)SC3 | inconclusive [inhibitor, partial curve] |
| COc1cccc(C2CCCN2Cc2nc(-c3cnccn3)no2)c1 (centres undefined) | inconclusive [inhibitor, partial curve] |
| CS(=O)(=O)c1sc(C#N)c2c1C(=O)CC(c1ccccc1)C2 (centres undefined) | active: 0.316 µM |
| CN(C(=O)CC1C(=O)NCCN1Cc1ccccc1F)C1CCOCC1 (centres undefined) | inconclusive [inhibitor, partial curve] |

| SMILES | Potency |
| --- | --- |
| CCOC(=O)[C@H]1[C@H]2COc3ccc(OC)cc3[C@@H]2N2C(=O)CN(Cc3ccco3)C(=O)[C@@]12C | inconclusive [inhibitor, single point] |
| COc1cc(C2Nc3cccc4cccc(c34)N2)cc(OC)c1O | inconclusive [inhibitor, partial curve, poor fit] |
| CCC(=O)N1CCc2cc(S(=O)(=O)NCCC(=O)Nc3cccc(C)c3C)ccc21 | inconclusive [inhibitor, single point] |
| Cc1cc(C(=O)CSc2nc3ccccc3c(=O)n2C)c(C)n1CC1CCCO1 (centres undefined) | inconclusive [inhibitor, partial curve] |
| O=C(NC1(C(F)(F)F)Oc2ccccc2O1)N1CCCC1 | active: 39.8 µM |
| O=C(Nc1ccccc1)c1ccc(S(=O)(=O)NCc2ccco2)cc1 | inconclusive [inhibitor, partial curve] |
| CCN1C(=NCCc2cccnc2)N[C@@H](c2ccccc2)[C@H](C(=O)OC)[C@H]1C | inconclusive [inhibitor, single point] |
| O=C1CN(C(=O)COC(=O)/C=C/c2ccco2)c2ccccc2N1 | inconclusive [inhibitor, partial curve] |
| COc1cccc(NC(=S)NCc2ccncc2)c1 | inconclusive [inhibitor, partial curve] |
| CNS(=O)(=O)c1cccc(C(=O)NCC(c2ccco2)N(C)C)c1 (centres undefined) | inconclusive [inhibitor, partial curve] |
| Cc1cccc(N2N=C(C(=O)N3CC(=O)Nc4ccccc43)CCC2=O)c1 | inconclusive [inhibitor, partial curve] |
| NC(=O)c1cc2nc(-c3ccco3)cc(C(F)(F)F)n2n1 | inconclusive [inhibitor, partial curve] |
| Cc1nnsc1C(=O)Oc1ccccc1Cl | active: 44.7 µM |
| COc1ccccc1N1C(=O)C2C(c3ccccc3F)NN(C(=O)c3ccc(C)cc3)C2C1=O (centres undefined) | active: 17.8 µM |
| Cn1nnc(NC(=S)NC(=O)c2cccs2)n1 | inconclusive [inhibitor, partial curve] |
| Cc1ccc(-c2[nH]c3ccccc3c2C(C[N+](=O)[O-])c2ccco2)cc1 (centres undefined) | active: 79.4 µM |
| C=CCN(CC=C)CC(O)CN(c1cc([N+](=O)[O-])ccc1OC)S(=O)(=O)c1ccccc1 (centres undefined) | inactive |
| Cc1ccccc1N(CC(=O)NCc1ccco1)C(=O)CNS(=O)(=O)c1ccc(F)cc1 | active: 39.8 µM |
| Cc1ccc(OCCC(=O)Nc2ccc(F)c(Cl)c2)cc1 | inactive |
| O=C(Nc1ccc(Oc2ccccc2)nc1)C1CCCCN1Cc1cccc(OCCO)c1 (centres undefined) | inconclusive [inhibitor, partial curve] |
| CC(C)Sc1oc(-c2ccco2)nc1S(=O)(=O)c1ccccc1 | inconclusive [inhibitor, partial curve] |
| O=C(COc1ccc(Cl)cc1)Nc1ccc2[nH]ncc2c1 | inactive |
| O=c1[nH]c(-c2ccccn2)nc(C(F)(F)F)c1Br | inactive |
| C=CCNC(=S)/N=c1/ccccn1Cc1ccccc1 | inconclusive [inhibitor, full curve] |
